The results in this text go back to the supplement of paper PMC10126150.

In this data set the test system is ATP. Kind of data set: switch fluorescence ratio, 500 uM ATP over buffer (Cy3 cluster intensity, sum of 5 cycles each) (fold (ratio)); higher = stronger signal-on switching upon ATP binding; sequences stand for … in TCGTCGGCAGCGTCAGATGTGTATAAGAGACAGTTTTTTTTTTTTTTTTTTTTTTTTT…TC. To be noted: aptamer strand: ATP DNA aptamer (quencher-CACCTGGGGGAGTATTGCGGAGGAAGG + anchor), 100 nM annealed; ATP concentration: 500 uM; one replicate. The procedure, abridged: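 Per cluster, summed Cy3 intensity from the target cycles was divided by that from the buffer cycles to give the fluorescence ratio, then averaged per switch-domain sequence. Clusters outside 100-1000 RFU were excluded. The Cy3-labelled switching-strand clusters, on a modified Illumina MiSeq flow-cell, were annealed to 100 nM quencher-labelled ATP aptamer and imaged in selection buffer, then after 15 min with 500 uM ATP at 22 °C, for five cycles with NaOH stripping and re-annealing between them.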

Sequences with one replicate were seen in a single cluster, so their values are uncertain.
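Further: ATP exposure 15 min at 22 °C before imaging.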

Regarding AGCGGACCGC, the switch fluorescence ratio amounted to 1.

As to GGATTCTTCA, the switch fluorescence ratio was 1.01.

With GGGCTACCGG, the switch fluorescence ratio turned out to be 1.17.

Consider GCCCTAAGCC, for which the switch fluorescence ratio worked out at 0.971.

In the case of TTTGACTGTT, the switch fluorescence ratio was 1.03.

For the sequence ATTAGTTTGG, the switch fluorescence ratio was determined as 0.996.

GTAGTACGC: the switch fluorescence ratio amounted to 1.04.

With GCGATGGCGC, the switch fluorescence ratio worked out at 0.992.

Take GCATTGGGGA: the switch fluorescence ratio was 0.95.

As to TTCCATTTAG, the switch fluorescence ratio worked out at 1.02.

For the sequence CCGCTAGAGC, the switch fluorescence ratio amounted to 3.88.

Regarding TGTGCGTAAG, the switch fluorescence ratio came to 1.04.

As for CATCCGTGCT, the switch fluorescence ratio was 1.42.

For CTTGGGCCTC, the switch fluorescence ratio is 0.97.

As for CCACTATCAT, the switch fluorescence ratio worked out at 1.

As for TAATCGGGAG, the switch fluorescence ratio came to 0.984.

AGACGAGAGG: the switch fluorescence ratio was 1.02.

Turning to AATATCGCGT, the switch fluorescence ratio stood at 0.98.

Regarding CACATGATCT, the switch fluorescence ratio was 1.05.

TTTCCTTACG: the switch fluorescence ratio was determined as 1.94.

With ATATTGTG, the switch fluorescence ratio was 0.997.

As to AGAAACTCGG, the switch fluorescence ratio came out at 0.988.

Consider CATGGAGCAT, for which the switch fluorescence ratio worked out at 1.39.

Take TTGAGTCCGC: the switch fluorescence ratio worked out at 2.01.

With GCGGTTTGTA, the switch fluorescence ratio was determined as 0.989.

Turning to CTGAGACATA, the switch fluorescence ratio turned out to be 1.04.

Turning to TATCAACATC, the switch fluorescence ratio was 1.03.

Consider CGGGTGCTAG, for which the switch fluorescence ratio is 1.01.

As for AAGCGCATAG, the switch fluorescence ratio came out at 1.17.

Turning to CAGGGTTTA, the switch fluorescence ratio is 1.05.

In the case of TCAGTTCCCC, the switch fluorescence ratio stood at 0.965.

In the case of CAGGCCTAAA, the switch fluorescence ratio worked out at 0.96.

As to TCGTAAAAAC, the switch fluorescence ratio came to 1.05.

For GAGGTCGGGG, the switch fluorescence ratio came out at 1.03.

Turning to CTAAGCGTAT, the switch fluorescence ratio is 1.02.

On to AGCCGATGTG, for which the switch fluorescence ratio is 1.02.

TAAGTGCGTG: the switch fluorescence ratio was found to be 0.976.

As for TGGTGGGCTT, the switch fluorescence ratio came to 1.01.

GGTTGAGGCA: the switch fluorescence ratio came out at 1.02.

For the sequence ATTACATTGA, the switch fluorescence ratio is 1.05.

Take GAATCAGTTC: the switch fluorescence ratio was found to be 0.972.

For GGATTATAGG, the switch fluorescence ratio stood at 1.

In the case of AGTGGTCGCC, the switch fluorescence ratio is 1.01.

CGATGCCGGG: the switch fluorescence ratio was 1.02.

Consider TTTTGACATA, for which the switch fluorescence ratio worked out at 1.

Regarding TGCGTACGAT, the switch fluorescence ratio is 1.02.

AAGTGTGAAA: the switch fluorescence ratio amounted to 0.988.

For CACTGGTATA, the switch fluorescence ratio was determined as 1.06.

For the sequence GCGGTAGTAA, the switch fluorescence ratio worked out at 0.961.

For the sequence GTTGATGAGC, the switch fluorescence ratio stood at 0.972.

Turning to AACCATTCAC, the switch fluorescence ratio worked out at 1.14.

In the case of GGCAGTGGGT, the switch fluorescence ratio worked out at 1.02.

For TCACGGGAGA, the switch fluorescence ratio stood at 1.02.

GGGAGTAAGC: the switch fluorescence ratio stood at 1.03.

In the case of ATGAGGACTA, the switch fluorescence ratio is 1.02.

On to TTGGTTGTCC, for which the switch fluorescence ratio worked out at 0.979.

Consider TAGCTCTT, for which the switch fluorescence ratio was found to be 1.05.

With GGGCATGAGT, the switch fluorescence ratio was found to be 0.959.

In the case of GGATAATTAA, the switch fluorescence ratio came out at 0.995.

Regarding GTCACGGATG, the switch fluorescence ratio is 1.01.

CGGCTCTCAA: the switch fluorescence ratio amounted to 1.11.

For the sequence GGGCGCCACT, the switch fluorescence ratio came to 0.964.

Take TACCGGGAAT: the switch fluorescence ratio was found to be 0.985.

Consider AGTTTACTAT, for which the switch fluorescence ratio was 1.01.

For the sequence GGATGGGAGT, the switch fluorescence ratio was found to be 0.98.

With GCAATGACGG, the switch fluorescence ratio was determined as 1.17.

On to AGTCGCTGGG, for which the switch fluorescence ratio is 0.953.
